# Test results taken from the BET-seq Pho4 binding data (Le et al. 2018).
# The list shows a part of the results. These are noisy estimates, calculated here from bound and input reads.
# Biological target: T1, Pho4 (S. cerevisiae) (UniProt P07270)
# T1 sequence: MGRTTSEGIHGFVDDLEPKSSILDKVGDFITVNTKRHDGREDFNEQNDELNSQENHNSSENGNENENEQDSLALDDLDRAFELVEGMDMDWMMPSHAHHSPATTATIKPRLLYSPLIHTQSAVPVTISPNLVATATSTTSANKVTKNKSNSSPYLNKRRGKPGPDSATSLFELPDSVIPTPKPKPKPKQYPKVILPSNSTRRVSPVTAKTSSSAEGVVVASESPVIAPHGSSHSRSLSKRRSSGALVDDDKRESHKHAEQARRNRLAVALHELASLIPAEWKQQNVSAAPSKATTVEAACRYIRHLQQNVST
# Assay: relative binding free energy (BET-seq); higher = weaker binding
# Settings: reference: library average
row,Sequence,relative binding free energy
1,AGTACCACGTGTTGGT,-0.06 kcal/mol
2,TGCTGCACGTGGTAAT,-0.06 kcal/mol
3,GTTGCCACGTGTGATA,0.2 kcal/mol
4,AAGAGCACGTGGTTAT,-0.33 kcal/mol
5,GGCGGCACGTGGGTAG,-0.19 kcal/mol
6,GTTGACACGTGGTCAT,-0.01 kcal/mol
7,CGAATCACGTGGGGGT,0.01 kcal/mol
8,TATTCCACGTGGGAAT,0.17 kcal/mol
9,TTGTGCACGTGGTCTA,-0.22 kcal/mol
10,TTTGTCACGTGTGCGC,0.07 kcal/mol
11,ATTGACACGTGCAGGG,-0.05 kcal/mol
12,CAGCTCACGTGGGGTG,-0.01 kcal/mol
13,GTAGCCACGTGATGTG,0.03 kcal/mol
14,GGTAACACGTGTAGAT,0.28 kcal/mol
15,ATAAACACGTGGTAGT,-0.16 kcal/mol
16,TTGCGCACGTGGGAGG,-0.14 kcal/mol
17,AAGGTCACGTGTAGGG,0.04 kcal/mol
18,TGTACCACGTGAGTAT,0.32 kcal/mol
19,TTGGTCACGTGTACGA,0.17 kcal/mol
20,GAATGCACGTGTTATG,0.01 kcal/mol
21,CGGGTCACGTGGCTTG,-0.11 kcal/mol
22,TTTTACACGTGACGGA,0.25 kcal/mol
23,GTACACACGTGTGGGA,0.08 kcal/mol

row,Sequence,relative binding free energy
1,AATGGCACGTGGTCGT,-0.16 kcal/mol
2,CGCGGCACGTGGGTCA,-0.08 kcal/mol
3,TTAATCACGTGTTAGC,0.1 kcal/mol
4,TAAAGCACGTGTATAG,-0.08 kcal/mol
5,GGTAACACGTGAGTGG,0.31 kcal/mol
6,TTGACCACGTGTTGGC,0.06 kcal/mol
7,CTTAACACGTGTTTTG,-0.18 kcal/mol
8,CAGGACACGTGGGGTT,-0.09 kcal/mol
9,AGAGGCACGTGGTCGC,-0.19 kcal/mol
10,TCGAGCACGTGGGAGA,-0.02 kcal/mol
11,TGGTGCACGTGGGCCA,-0.2 kcal/mol
12,GGGTTCACGTGCGGCA,0.4 kcal/mol
13,AGTGCCACGTGAGCGG,0.01 kcal/mol
14,CCTTTCACGTGGTTGT,0.37 kcal/mol
15,GCTCGCACGTGTGGTG,-0.08 kcal/mol
16,AAGGGCACGTGTCTGG,-0.09 kcal/mol
17,CGTTTCACGTGTACAT,0.35 kcal/mol
18,TTGGTCACGTGGTCTC,0.2 kcal/mol
19,CTTTTCACGTGGAGGA,0.36 kcal/mol
20,GGCGTCACGTGTTGGT,0.12 kcal/mol
21,TTAGACACGTGGGATA,-0.01 kcal/mol
22,CAGGTCACGTGTTCTG,0.11 kcal/mol
23,TATGTCACGTGATGTC,0.29 kcal/mol

row,Sequence,relative binding free energy
1,TTTGTCACGTGTTAGA,0.04 kcal/mol
2,TCTTTCACGTGCTAGG,0.3 kcal/mol
3,CGTAGCACGTGGTTCG,-0.19 kcal/mol
4,TGAAGCACGTGTGGTT,-0.19 kcal/mol
5,TGAATCACGTGCGGAG,0.15 kcal/mol
6,TAATTCACGTGATAGT,0.32 kcal/mol
7,TGGAACACGTGGGCGA,0.04 kcal/mol
8,AGTGGCACGTGGAGAA,0.01 kcal/mol
9,TTGTACACGTGACGTT,0.25 kcal/mol
10,TTCCTCACGTGGGGGC,0.21 kcal/mol
11,TTGTTCACGTGGGAGG,0.28 kcal/mol
12,TCGTGCACGTGTATTA,-0.08 kcal/mol
13,TTAGTCACGTGTGTAG,0.09 kcal/mol
14,TAATTCACGTGACGGG,0.36 kcal/mol
15,CAGTGCACGTGGTGAC,0.02 kcal/mol
16,TGTGTCACGTGTTTCC,0.25 kcal/mol
17,TATCTCACGTGAGGTA,0.35 kcal/mol
18,GGTCACACGTGATGTT,0.07 kcal/mol
19,TAGGGCACGTGGATGA,-0.13 kcal/mol
20,TGCTACACGTGCGGGT,0.11 kcal/mol
21,TGTGGCACGTGGGCGC,-0.28 kcal/mol
22,GTTCACACGTGATGGG,0.28 kcal/mol
23,AGATACACGTGTGGAA,0.11 kcal/mol

row,Sequence,relative binding free energy
1,TTGTTCACGTGCTGGC,0.4 kcal/mol
2,TTGTTCACGTGTTGTT,0.31 kcal/mol
3,GCATGCACGTGTAGGT,0.12 kcal/mol
4,CAGTGCACGTGATATT,0.17 kcal/mol
5,TGCCGCACGTGGTAGG,-0.16 kcal/mol
6,GATTACACGTGTAGCT,0.28 kcal/mol
7,TAGATCACGTGGTTAA,0.06 kcal/mol
8,ATTTGCACGTGTCGTT,0.03 kcal/mol
9,AAATGCACGTGTTTAT,0 kcal/mol
10,TTTGACACGTGGGGGT,-0.14 kcal/mol
11,TTTGGCACGTGACCGT,-0.17 kcal/mol
12,AGGGTCACGTGAGAGT,0.35 kcal/mol
13,GGATTCACGTGTTTAC,0.42 kcal/mol
14,TAGCTCACGTGAAGTG,0.21 kcal/mol
15,GTAGACACGTGTCTTT,0.15 kcal/mol
16,TAGGGCACGTGGCGGC,-0.34 kcal/mol
17,TGTTACACGTGTTCTG,0.01 kcal/mol
18,GGGTTCACGTGATTAA,0.42 kcal/mol
19,GATTCCACGTGATAGG,0.28 kcal/mol
20,GGGGTCACGTGTGGTC,0.22 kcal/mol
21,TTATACACGTGTGGTG,0.14 kcal/mol
22,TTTGTCACGTGGATCA,0.09 kcal/mol
23,TATTGCACGTGTCTTG,0.02 kcal/mol

row,Sequence,relative binding free energy
1,TAAGTCACGTGTGAGG,-0.01 kcal/mol
2,AAGCGCACGTGTGTTT,-0.05 kcal/mol
3,GTAGACACGTGAGGGA,0.19 kcal/mol
4,GAGATCACGTGTGTTA,0.2 kcal/mol
5,TAGGTCACGTGGGAAT,0.1 kcal/mol
6,AGCATCACGTGTTGAT,0.15 kcal/mol
7,TTGTTCACGTGGGTTT,0.29 kcal/mol
8,GTTGACACGTGGGGCT,-0.07 kcal/mol
9,CGGGGCACGTGGCCGA,-0.11 kcal/mol
10,TGTGCCACGTGGGAAA,-0.09 kcal/mol
11,TATTGCACGTGATATG,0.01 kcal/mol
12,TAAGGCACGTGTTGTC,-0.27 kcal/mol
13,GACTTCACGTGTTGGA,0.24 kcal/mol
14,GGTTACACGTGGCATT,0.13 kcal/mol
15,GTAGTCACGTGGAGGC,0.18 kcal/mol
16,AGATTCACGTGCATGT,0.17 kcal/mol
17,GGCTTCACGTGTTGTT,0.27 kcal/mol
18,TATGACACGTGGTTTT,0 kcal/mol
19,TTTGGCACGTGTAGAA,-0.09 kcal/mol
20,ATTAGCACGTGGACGG,-0.06 kcal/mol
21,AGGAACACGTGGAAGT,0.12 kcal/mol
22,CTAGACACGTGGTTGG,-0.07 kcal/mol
23,TGTTGCACGTGTCCAG,0.11 kcal/mol
